Source: a compilation of properties of binary mixtures (doi:10.1016/j.molliq.2015.01.031)
Some of these densities may be calculated back from excess volumes.

Test: xn = mol fraction of the nth substance listed
Conditions: 101 kPa

CCCC[n+]1ccn(C)c1.F[B-](F)(F)F + CC(O)CO
x2 = 0
Conditions	mass density [kg/m3]
303.15 K	1195.2
318.15 K	1184.5
323.15 K	1181

CC(O)CO (stereo not drawn) + CCCC[n+]1ccn(C)c1.F[B-](F)(F)F
mass density [kg/m3]
Conditions	x1 = 0.1182	x1 = 0.2003	x1 = 0.3122	x1 = 0.4189	x1 = 0.5064	x1 = 0.6165	x1 = 0.695	x1 = 0.797	x1 = 0.8966	x1 = 1
298.15 K	1190.4	–	–	1160.4	1147	1127.7	1111.8	1089.6	1064.9	1032.6
303.15 K	1186.8	–	1169	–	1142.9	1123.5	–	1085.5	1061.2	1029
308.15 K	–	–	–	1152.1	1138.7	1119.5	1103.8	1081.5	1057.2	1025.2
313.15 K	1179.6	–	1161.4	1147.9	1134.5	–	1099.8	1077.5	–	1021.4
318.15 K	1176.1	–	–	1143.5	1130.3	1111.2	1095.7	1073.4	–	1017.6
323.15 K	1172.5	1165.3	1153.6	1139.4	1126.2	–	1091.6	1069.4	1045	1013.8

CCCC[n+]1ccn(C)c1.F[B-](F)(F)F + OCCCO
x2 = 0
Conditions	mass density [kg/m3]
298.15 K	1198.8
303.15 K	1195.2
308.15 K	1191.6
313.15 K	1188
318.15 K	1184.5
323.15 K	1181

OCCCO + CCCC[n+]1ccn(C)c1.F[B-](F)(F)F
mass density [kg/m3]
Conditions	x1 = 0.1026	x1 = 0.2072	x1 = 0.3172	x1 = 0.3943	x1 = 0.503	x1 = 0.6011	x1 = 0.7009	x1 = 0.8006	x1 = 0.8979	x1 = 1
298.15 K	1192.8	1185.8	1176.1	–	1151.4	1137.3	1119.5	–	1079.3	1049.7
303.15 K	–	1182.1	1172.4	1159.9	1147.7	1133.6	1115.8	1097.9	1075.9	1046.5
308.15 K	1185.6	1178.5	1168.7	1156.2	1144	1130	1112.3	1094.4	–	1043.4
313.15 K	1182	1174.9	–	–	–	1126.3	1108.7	1091	1069.1	1040.2
318.15 K	1178.5	1171.3	1161.4	1148.9	1136.7	–	–	1087.5	1065.8	1037.1
323.15 K	1175	1167.7	1157.8	–	1133.1	1119.2	1101.6	1084	–	1033.9
